{"source": "PubChem BioAssay AID504339", "about": "(National Center for Advancing Translational Sciences (NCATS), 2011)", "note": "Hit rate of the full screen: of about 390,000 compounds, about 17,000 (4.4%) were called active. Inconclusive results, whose numbers are uncertain, are shown with a selection of clear calls. Calls follow the shape of the dose curve; as a rule, active = well fitted inhibition curve with a large enough effect; inconclusive = small, poorly fitted or top-dose-only effect; inactive = no such curve, though single readings can be large or run the other way. Where the call is inconclusive, the potency comes from a doubtful curve fit. Potency is read from the fitted curve at half-maximal effect; tags tell the direction and shape of the fitted curve.", "data": [{"molecular_target": "Lysine-specific demethylase 4A (Homo sapiens) (UniProt O75164)", "sequence (O75164 whole entry, looked up, the tested form may be a part)": "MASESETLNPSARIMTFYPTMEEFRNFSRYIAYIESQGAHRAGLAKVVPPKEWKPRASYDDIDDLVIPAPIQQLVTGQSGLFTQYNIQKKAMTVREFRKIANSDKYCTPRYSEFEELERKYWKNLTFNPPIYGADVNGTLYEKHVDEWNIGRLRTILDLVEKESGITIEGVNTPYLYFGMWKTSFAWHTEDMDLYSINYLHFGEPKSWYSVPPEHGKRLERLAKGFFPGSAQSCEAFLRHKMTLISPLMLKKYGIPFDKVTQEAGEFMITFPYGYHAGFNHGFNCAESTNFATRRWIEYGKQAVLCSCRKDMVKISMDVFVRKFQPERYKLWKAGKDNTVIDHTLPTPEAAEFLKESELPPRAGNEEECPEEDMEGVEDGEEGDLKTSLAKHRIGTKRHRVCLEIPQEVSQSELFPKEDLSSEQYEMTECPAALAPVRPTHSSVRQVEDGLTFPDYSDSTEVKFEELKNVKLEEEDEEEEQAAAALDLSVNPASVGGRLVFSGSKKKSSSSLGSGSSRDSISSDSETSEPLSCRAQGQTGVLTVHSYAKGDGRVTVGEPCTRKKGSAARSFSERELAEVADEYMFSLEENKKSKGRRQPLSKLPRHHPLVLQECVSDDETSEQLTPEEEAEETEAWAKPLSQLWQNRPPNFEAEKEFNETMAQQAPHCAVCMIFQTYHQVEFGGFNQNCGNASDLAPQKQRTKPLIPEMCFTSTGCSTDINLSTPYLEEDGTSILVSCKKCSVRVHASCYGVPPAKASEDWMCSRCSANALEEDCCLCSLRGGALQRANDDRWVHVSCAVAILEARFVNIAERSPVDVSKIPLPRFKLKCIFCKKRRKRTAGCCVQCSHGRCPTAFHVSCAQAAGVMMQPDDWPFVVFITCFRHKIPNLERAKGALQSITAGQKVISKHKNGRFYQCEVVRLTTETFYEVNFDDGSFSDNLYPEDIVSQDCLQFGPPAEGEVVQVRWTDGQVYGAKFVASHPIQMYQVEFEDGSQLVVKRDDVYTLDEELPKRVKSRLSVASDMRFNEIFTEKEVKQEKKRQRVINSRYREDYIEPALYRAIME", "experiment": "qHTS Assay for Inhibitors of JMJD2A-Tudor Domain; also: nearly all actives have a fitted effect of over 50% in size", "conditions": "AlphaScreen JMJD2A-Tudor / H3K4me3 peptide binding; series mostly up to 114 µM", "values": [{"smiles": "Cc1c(Cl)cccc1-c1ccc(CNCc2ccccn2)o1", "Potency": "inconclusive: 17.8 µM [inhibitor, partial curve, poor fit]"}, {"smiles": "CC(Oc1ccc(Cl)cc1)C(=O)N/N=C/c1ccsc1", "note": "(centres undefined)", "Potency": "inconclusive: 89.1 µM [inhibitor, single point]"}, {"smiles": "Cn1cc(-c2cc3n(n2)CCC(=O)N3CC(=O)NCc2ccccc2)c2ccccc21", "Potency": "inactive"}, {"smiles": "CCCCn1c(N)c(N(CC(C)C)C(=O)CSCC(=O)Nc2ccc(C)cc2)c(=O)[nH]c1=O", "Potency": "inactive"}, {"smiles": "c1cncc(CNc2ncnc3ccc(-c4ccc5c(c4)OCCO5)cc23)c1", "Potency": "inconclusive: 63.1 µM [inhibitor, partial curve, poor fit]"}, {"smiles": "Cc1c(NC(=O)Nc2ccc(F)cc2)c(=O)n(-c2ccccc2)n1C", "Potency": "inactive"}, {"smiles": "Cc1cc2ccccn2c1C(=O)c1ccc(F)cc1", "Potency": "inactive"}, {"smiles": "COC(=O)c1ccccc1NC(=O)CSc1nc(N)cc(N)n1", "Potency": "inactive"}, {"smiles": "Cc1cc(C)c(NC(=O)/C(C#N)=C/c2ccc(OCc3ccc(F)cc3)cc2)c(C)c1", "Potency": "inactive"}, {"smiles": "Cc1ccc(Nc2c(-c3cccc(Cl)c3)nc3cccc(C)n23)cc1", "Potency": "inconclusive: 56.2 µM [inhibitor, partial curve]"}, {"smiles": "CCOc1ccc(-c2nnc3sc(COc4ccc(Cl)cc4)nn23)cc1", "Potency": "inconclusive: 56.2 µM [inhibitor, partial curve]"}, {"smiles": "CN(C)c1ccc(NC(=O)c2ccc(N3CCOCC3)nc2)cc1", "Potency": "inconclusive: 50.1 µM [inhibitor, partial curve]"}, {"smiles": "Cc1ccc(NC(=O)CSc2nc(=O)n(CCN3CCOCC3)c3c2CCC3)cc1Cl", "Potency": "inactive"}, {"smiles": "CCCCNC(=O)C(C)N(CCN(C)C)C(=O)CCCCCN1C(=O)NC(c2ccc(Cl)cc2)C(C(=O)OCc2ccccc2)=C1C", "note": "(centres undefined)", "Potency": "inconclusive: 50.1 µM [inhibitor, partial curve]"}, {"smiles": "Cc1[nH]c2ccccc2c1SCCNC(=O)c1ccc(F)cc1", "Potency": "inconclusive: 56.2 µM [inhibitor, partial curve]"}, {"smiles": "O=C1C(=O)N(Cc2cccnc2)C(c2ccc(Br)cc2)/C1=C(\\O)c1ccc2c(c1)OCCO2", "note": "(centres undefined)", "Potency": "inactive"}, {"smiles": "O=C(OCc1ccc([N+](=O)[O-])cc1)c1cc2ccccc2oc1=O", "Potency": "inconclusive: 28.2 µM [inhibitor, single point]"}, {"smiles": "CN(C)C(CNc1ccc(C(F)(F)F)cc1[N+](=O)[O-])c1ccccc1", "note": "(centres undefined)", "Potency": "active: 35.5 µM"}, {"smiles": "Cc1ccc2cc(CN(CCc3ccccc3)C(=S)NCCCN(C)C)c(=O)[nH]c2c1", "Potency": "inconclusive: 50.1 µM [inhibitor, partial curve]"}, {"smiles": "CCCCC(c1nnnn1C(C)C)N1CCN(C(=O)c2ccco2)CC1", "note": "(centres undefined)", "Potency": "inconclusive: 22.4 µM [inhibitor, full curve, poor fit]"}, {"smiles": "COc1ccccc1N1CCN(CCCN2C(=O)C3CCCN3C2=O)CC1", "note": "(centres undefined)", "Potency": "inconclusive: 89.1 µM [inhibitor, single point]"}, {"smiles": "CC(=NNc1ccc([N+](=O)[O-])cn1)c1ccc(N)cc1", "Potency": "inconclusive: 11.2 µM [inhibitor, full curve]"}, {"smiles": "CC1=C(C(=O)Nc2cccc(C(=O)N3CCN(c4cccc(C(F)(F)F)c4)CC3)c2)SCCO1", "Potency": "inconclusive: 89.1 µM [inhibitor, partial curve]"}, {"smiles": "C=CCSc1nnc2c(n1)OC=Nc1ccccc1-2", "Potency": "inconclusive: 89.1 µM [inhibitor, single point]"}, {"smiles": "C/C=C(\\C)CN1CCN(c2cc(C)ccc2C)CC1", "Potency": "active: 5.62 µM"}, {"smiles": "COC(=O)c1ccc(NC(=O)c2nn(C)c3c2COc2ccccc2-3)cc1", "Potency": "inconclusive: 20 µM [inhibitor, full curve]"}, {"smiles": "CCOc1ccc(OCC(=O)NCCS(=O)(=O)N2CCN(c3ccc(OC)cc3)CC2)cc1", "Potency": "inactive"}, {"smiles": "O=C(NCCc1ccc(Cl)cc1)c1ccc(NC2=NC3CS(=O)(=O)CC3S2)cc1", "note": "(centres undefined)", "Potency": "inactive"}, {"smiles": "Cc1nn(CCCC(=O)NCCc2ccc(Cl)cc2)c(=O)c2nn(-c3ccccc3)c(C)c12", "Potency": "inactive"}, {"smiles": "CS/C(=N/S(=O)(=O)c1ccc(C)cc1)c1ccccc1", "Potency": "inconclusive: 89.1 µM [inhibitor, partial curve]"}, {"smiles": "O=C(N/N=C\\c1c(O)ccc2ccccc12)c1ccc(O)cc1", "Potency": "inconclusive: 63.1 µM [inhibitor, partial curve, poor fit]"}, {"smiles": "CCOc1ccc(NC(=O)CN2CCN(CC(=O)c3ccc(OC)c(OC)c3)CC2)cc1", "Potency": "inconclusive: 22.4 µM [inhibitor, single point]"}, {"smiles": "Cc1c(OC(C)C(=O)NCC2CCC(C(=O)O)CC2)ccc2c3c(c(=O)oc12)CCCC3", "note": "(centres undefined)", "Potency": "inactive"}, {"smiles": "COc1ccccc1CN(C(=O)Cc1cccs1)C(C(=O)NC1CCCC1)c1ccncc1", "note": "(centres undefined)", "Potency": "inconclusive: 89.1 µM [inhibitor, single point]"}, {"smiles": "CCOc1cc2[nH]c(=S)n(Cc3ccc(C(=O)O)cc3)c(=O)c2cc1OCC", "Potency": "inconclusive: 22.4 µM [inhibitor, full curve]"}, {"smiles": "O=C(CN1C(=O)S/C(=C/C=C/c2ccccc2)C1=O)Nc1ccc(C(=O)O)cc1", "Potency": "inconclusive: 39.8 µM [inhibitor, partial curve]"}, {"smiles": "COc1ccc(C)cc1NC(=O)C1CCN(S(=O)(=O)c2cccc3cccnc23)CC1", "Potency": "inconclusive: 39.8 µM [inhibitor, partial curve]"}, {"smiles": "CCN1c2ccccc2S(=O)(=O)c2ccccc21", "Potency": "inactive"}, {"smiles": "C#Cc1ccc([C@H]2C=C(C(=O)N3CCN(Cc4ccc5c(c4)OCO5)CC3)O[C@@H](OCC)[C@@H]2CCCO)cc1", "Potency": "inconclusive: 50.1 µM [inhibitor, partial curve]"}, {"smiles": "Cc1cc(=O)[nH]c(N/N=C/c2c(O)n(-c3ccccc3)c(=O)c3ccccc23)n1", "Potency": "inconclusive: 50.1 µM [inhibitor, partial curve]"}, {"smiles": "COC(=O)c1ccccc1NC(=O)Cn1ncc2c(C)n(Cc3ccc(F)cc3)c(C)c2c1=O", "Potency": "inactive"}, {"smiles": "COc1ccc(NC(=O)CCCN2C(=O)CN(C)C2=O)c(OC)c1", "Potency": "active: 50.1 µM"}, {"smiles": "CC(=O)c1cccc(Nc2cc(C)nc3nc(-c4ccccc4C)nn23)c1", "Potency": "inactive"}, {"smiles": "COc1cc(/C=C2\\C(=O)NN(c3ccccc3)C2=O)cc([N+](=O)[O-])c1O", "Potency": "active: 89.1 µM"}]}]}
